Here are results for 59 molecules from PubChem BioAssay AID1963576 (National Center for Advancing Translational Sciences (NCATS), 2024).

Screen size: about 46,000 compounds; about 60 (0.1%) were called active. Another 3% or so got no clear call; they are omitted. Calls follow the shape of the dose curve; as a rule, active = well fitted inhibition curve with a large enough effect; inconclusive = small, poorly fitted or top-dose-only effect; inactive = no such curve, though single readings can be large or run the other way. The list shows a part of the results.

The nature of this test: Primary qHTS assay for Inhibitors of ovarian cancer metastasis using an organotypic tumor microenvironment (TME) model. Also: nearly all actives have a fitted effect of over 65% in size.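 As to activity change, negative = inhibition: plate controls were DMSO wells for no effect and tomatine positive control wells for full effect.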 To be noted: SKOV3ip1-GFP adhesion/invasion on 3D omental model, fluorescence; series mostly up to 45.8 µM; activity change, negative = inhibition: at the top concentration. The method, boiled down: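 Adhesion/invasion was scored as fixed GFP-labeled SKOV3ip1 cell counts (488/509 nm), normalized to DMSO and tomatine controls. Cancer cells in serum-free medium, with four compound doses (0.36-46 umol/L), sat 2 hr at RT then 16 hr at 37 C on a 48 hr fibroblast/mesothelial/ECM culture.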
(In qHTS, concentration-response curves come from the screen itself.)
For `Cc1cc(C)c2c(-n3cccc3)c(C(=O)NCCCN3CCCCC3)sc2n1`, the “activity change, negative = inhibition” value is inactive: 5.74%.
On the same count and under the same terms, the value for `COc1cccc(CNC(=O)C(C)n2ccc3cc(S(=O)(=O)N4CCCCCC4)ccc32)c1` (centres undefined) was inactive: -14.8%.
Turning to `COc1ccc(-c2nn(C)c3sc(C(=O)N4CCN(c5ccccc5F)CC4)cc23)cc1OC`, the molecule was called inactive.
Consider `Cc1ccccc1OCCSc1nc(C)c(Cc2ccccc2)c(=O)[nH]1`, for which the “activity change, negative = inhibition” value was inactive: -6.11%.
Same read-out and setting: the value for `Cc1cccc2c1-c1sc(C(=O)NCCc3ccc(Cl)cc3)cc1CO2` was inactive: -23.8%.
The same measure, in the same setting: the value for `Cc1ccc(-c2[nH]c3ccccc3c2SCCNC(=O)c2ccc(S(=O)(=O)N3CCOCC3)cc2)cc1` was inactive: -9.9%; that for `COc1ccccc1-c1cc(NC(=O)COc2ccccc2Cl)n(-c2ccccc2)n1` was inactive: 6.69%.
The same measure, in the same setting: the value for `Cc1c(C(=O)OC2CCCC2)[nH]c2c1C(=O)CC(c1ccc(C(C)(C)C)cc1)C2` (centres undefined) was inactive: 10.4%; that for `CC(C)(C)C1CCc2c(sc(NC(=O)c3cccc(Cl)c3)c2C(N)=O)C1` (centres undefined) was inactive: -19.8%; that for `CC1CCN(C(=O)c2cnn(-c3ccc(Cl)cc3)c2C2CCN(C(=O)OC(C)(C)C)CC2)CC1` was inactive: -4.91%.
`Cc1ccc(-c2nc3sccn3c2Nc2ccccc2C)cc1`: the “activity change, negative = inhibition” value was inactive: 4%.
The same measure, in the same setting: as for `COc1cccc(CNC(=O)CN2C(=O)CSc3ccc(S(=O)(=O)N(C)C)cc32)c1`, the figure is inactive: 37.7%; as for `Cc1cccc(N2CCN(C(=O)c3nn(C)c4c3CSc3ccccc3-4)CC2C)c1` (centres undefined), inactive: -15.2%.
In the case of `CCN(CCCNC(=O)c1cc2cc3cc(OC)ccc3nc2s1)c1cccc(C)c1`, the molecule was called inactive.
For the molecule `CCC(=O)Oc1c(Sc2ccc(Cl)cc2)c(C)nn1C(C)(C)C`, the “activity change, negative = inhibition” value was inactive: 0.314%.
On the same count and under the same terms, as for `COc1ccc(NC(=O)CSc2oc(-c3ccc(C)cc3)nc2S(=O)(=O)c2ccc(C)cc2)c(OC)c1`, the figure is inactive: -13%.
The same measure, in the same setting: the value for `Cc1cc2c(cc3c(SCc4ccc(Cl)cc4)nnc(C)n32)o1` was inactive: 4.4%; that for `CSCCC(NS(=O)(=O)c1ccc2c(c1)oc(=O)n2C)C(=O)N1CCN(c2cc(Cl)ccc2C)CC1` (centres undefined) was inactive: -17.9%; that for `Cc1ccc(CSC2=Nc3ccccc3C3=NC(CC(=O)NC4CCCCC4)C(=O)N23)c(C)c1` (centres undefined) was inactive: -3.93%.
Turning to `CCC(C)NC(=O)c1cn(CC)c2ccc(S(=O)(=O)N3CCCCC3)cc2c1=O` (centres undefined), the “activity change, negative = inhibition” value was inactive: 7.07%.
Same read-out and setting: as for `CC1=C(c2ccc(C)cc2)S(=O)(=O)N=C1N1CCN(c2ccccc2)CC1`, the figure is inactive: -2.39%.
On the same count and under the same terms, as for `Cc1ccc2nc(-c3ccncc3)c(Nc3ccccc3C)n2c1`, the figure is inactive: -30.1%; as for `CNC(=O)c1cccc(-c2ccc3c(N4CCOC[C@H]4C)nc(N4CCOC[C@H]4C)nc3n2)c1`, inactive: -16.9%.
Same read-out and setting: as for `CCN1CCN(Cc2c(O)ccc3oc(C)c(C(=O)Nc4ccc(OC)c(Cl)c4)c23)CC1`, the figure is inactive: 3.84%; as for `CCOC(=O)c1ccccc1NC(=O)CSc1nc2ncccc2o1`, inactive: 16%; as for `Cc1cn(C)c(CC(=O)NCc2ccc(F)cc2)c1C(=O)O`, inactive: 1.85%.
Consider `Cc1cc(C)cc(NC(=O)CN2C(=O)COc3ccc(S(=O)(=O)Nc4ccccc4)cc32)c1`, for which the call was inactive.
Same read-out and setting: the value for `COc1ccc2c(c1)c1c(c(=O)n(-c3cccc(C)c3)c(=O)n1CC(=O)Nc1c(C)cc(C)cc1C)n2C` was “inactive”.
Same read-out and setting: the value for `CCc1cccc(NC(=O)CNS(=O)(=O)c2ccc3nc(C)sc3c2)c1` was “inactive”.
For `CNS(=O)(=O)c1cn(CC(=O)N2CCN(c3ccc(OC)cc3)CC2)cc1S(=O)(=O)NC`, the “activity change, negative = inhibition” value was inactive: 9.75%.
For `O=C(COc1ccccc1)N(Cc1cccnc1)c1nc2ccc(Cl)cc2s1`, the “activity change, negative = inhibition” value is inactive: -8.58%.
On the same count and under the same terms, the value for `Cc1cccc(-c2nc3c4ccccc4nc(NCc4ccccc4Cl)n3n2)c1` was inactive: 11.5%; that for `Cc1ccc(C(NC(=O)Cc2cccs2)C(=O)Nc2ccc(C(C)C)cc2)cc1` (centres undefined) was inactive: 10.1%; that for `CN(Cc1ccccc1)S(=O)(=O)c1ccc(F)c(C(=O)Nc2ccccc2C(F)(F)F)c1` was inactive: 0.0942%.
Same read-out and setting: as for `Cc1cc(Nc2cccc(C(F)(F)F)c2)ncn1`, the figure is inactive: 8.78%.
Turning to `CCn1cc(C(=O)NCc2ccccc2)c(=O)c2cc(S(=O)(=O)N3CCCCC3)ccc21`, the result was inactive.
Consider `Cc1ccc(NS(=O)(=O)c2ccc3c4c(cccc24)C(=O)N3)c(C)c1`, for which the “activity change, negative = inhibition” value was inactive: 19.3%.
As for `CCOC(=O)c1c(NC(=O)C(C)Sc2cn(CCNC(=O)c3ccc(OC)c(OC)c3)c3ccccc23)sc2c1CCC2` (centres undefined), the “activity change, negative = inhibition” value was inactive: 1.68%.
Regarding `CCOCCCn1c(=N)c(S(=O)(=O)c2ccc(C)cc2)cc2c(=O)n3ccccc3nc21`, the “activity change, negative = inhibition” value was inactive: 8.59%.
In the case of `CC(C)NC(=O)c1ccc(Cn2c(=O)c3cccn3c3cccnc32)cc1`, the outcome was inactive.
Turning to `COc1ccc(CC(=O)NC2CC(=O)N(c3ccc4c(c3)OCCO4)C2)cc1` (centres undefined), the “activity change, negative = inhibition” value is inactive: -0.707%.
Take `CCOCCCn1c(=N)c(C(=O)NCc2ccco2)cc2c(=O)n3ccccc3nc21`: the “activity change, negative = inhibition” value is inactive: -17.3%.
In the case of `COCCCNc1nc2c(-c3ccccc3)nnn2c2ccccc12`, the result was inactive.
As for `CCN1CCN(Cc2c(O)ccc3c(=O)c(Oc4ccccc4Cl)c(C(F)(F)F)oc23)CC1`, the “activity change, negative = inhibition” value was inactive: 14.9%.
Regarding `CCOC(=O)c1c(C)oc2nc(C)nc(NCc3ccc(C)cc3)c12`, the “activity change, negative = inhibition” value is inactive: 2.69%.
Regarding `O=C(NCCC1=CCCCC1)c1ccc2c(c1)N(Cc1ccc(F)cc1)C(=O)c1ccccc1S2(=O)=O`, the molecule was called inactive.
For the molecule `O=C(CSc1nncn2c1cc1sccc12)Nc1ccccc1C(F)(F)F`, the “activity change, negative = inhibition” value was inactive: -3.28%.
Same read-out and setting: as for `Cc1c(NC(=O)c2cc(-c3cccc(Cl)c3)on2)c(=O)n(-c2ccccc2)n1C`, the figure is inactive: 4.23%.
On the same count and under the same terms, as for `COc1ccc2nc3sc(C(=O)Nc4cc(Cl)c(OC)cc4OC)cc3cc2c1`, the figure is inactive: 0.395%.
With `CCOC(=O)c1c(C)sc(-c2c(-c3ccc4c(c3)OCCO4)[nH]c3c2c(=O)[nH]c(=O)n3C)c1O`, the molecule was called inactive.
On the same count and under the same terms, the value for `COc1ccc(NC(=O)C2(c3cccs3)CCOCC2)cc1Cl` was “inactive”.
For the molecule `Cc1ccccc1C(=O)NCC(c1cccnc1)N1CCc2ccccc21` (centres undefined), the “activity change, negative = inhibition” value was inactive: 1.7%.
Still for that read-out and setting: the value for `COc1ccc(N(C(=O)COc2c(C)cccc2C)S(=O)(=O)c2ccc(Cl)cc2)cc1` was inactive: 3.58%; that for `Cc1cccc(N2CCN(S(=O)(=O)c3ccc4oc(=O)c5ncn(C)c5c4c3)CC2C)c1` (centres undefined) was inactive: 1.41%.
The same measure, in the same setting: the value for `COC(=O)c1ccccc1NC(=O)c1cc2nc(-c3ccccc3)cc(-c3ccccc3)n2n1` was inactive: -0.437%; that for `COc1cc(NC(=O)CSc2nc(C)c(C(=O)Nc3ccccc3)c(-c3ccc(OC)c(OC)c3)c2C#N)c(OC)cc1Cl` was inactive: 13.4%.
In the case of `CC(C)CN(CCCNC(=O)CN1C(=O)COc2ccc(S(=O)(=O)N3CCCCCC3)cc21)CC(C)C`, the result was inactive.
As for `O=C1CC(=O)Nc2cc(S(=O)(=O)N3CCOc4ccccc43)ccc2N1`, the “activity change, negative = inhibition” value is inactive: -3.52%.
The same measure, in the same setting: as for `Cc1ccc(Cl)cc1N1CCN(CCCNc2ncnc3onc(-c4ccc(F)cc4)c23)CC1`, the figure is inactive: -4.21%.
